Results: patent EP4628104A1, “ANTI-CLDN18.2 ANTIBODY-DRUG CONJUGATE, AND PHARMACEUTICAL COMPOSITION THEREOF AND USE THEREOF” (priority 2022, dated 2024)

Tests used:
NIH-3T3-CLDN18.1 cells = assay: Non-specific killing of CLDN18.2-negative cells; type: cell-based, Mouse; conditions: up to 20 nM, 96 h; ADCs of Example 5
Procedure: To detect the non-specific killing effect of the anti-CLDN18.2 antibody-drug conjugates prepared in Example 5 on CLDN18.2-negative cells, the killing activity detection was performed using CLDN18.1-overexpressing NIH-3T3.
cDNA encoding human CLDN18.1 (SEQ ID NO: 66) was obtained by gene synthesis and then subcloned into an expression vector pcDNA3.1. The expression vector was transfected into NIH-3T3 cells according to the instructions of the Lipofectamine 2000 transfection reagent (Thermo, Cat. No. 11668019) to obtain CLDN18.1-overexpressing NIH-3T3 -CLDN18.1.
NIH-3T3-CLDN18.1 cells in the logarithmic growth phase were taken, adjusted to a cell density of 1 × 10^4 cells/mL, and added to a 96-well plate at 100 µL/well. The cells were placed in an incubator at 37 °C with 5% CO2 for adherence culture overnight. The anti-CLDN18.2 antibody-drug conjugate was prepared with a DMEM medium containing 10% FBS. Cells subjected to overnight adherence culture were taken out. […] Then, 180 µL of the solution was pipetted from each well and transferred to an opaque white plate, bubbles were removed, the chemiluminescence value was read, and the viability of the cells was calculated. Viability(%) = (Luminescence value of the experimental group)/(Luminescence value of the control group) × 100% [formula]
Data were analyzed using Graphpad Prism 5.

U2OS-Luciferase = assay: Bystander effect in mixed culture of positive and negative cells; type: cell-based, Human; conditions: viability of U2OS-Luciferase negative cells co-cultured with CLDN18.2-overexpressing BxPC-3, 120 h, up to 33.3 nM; ADCs of Example 5
Procedure: CLDN18.2-overexpressing BxPC-3 was selected as positive cells and U2OS stably expressing luciferase (U2OS-Luciferase) was selected as negative cells. These cells were mixed and cultured to detect the bystander effect of the anti-CLDN18.2 antibody-drug conjugates prepared in Example 5.
Positive cells and negative cells in the logarithmic growth phase were taken, both adjusted to a density of 4 × 10^4 cells/mL, and added to a 96-well plate at 50 µL/well. The anti-CLDN18.2 antibody-drug conjugate was subjected to gradient dilution with the McCoy's 5A complete medium (GIBCO, Cat. No. 16600-082) containing 10% FBS and added to the 96-well plate at 50 µL/well. The initial concentration of the anti-CLDN18.2 antibody-drug conjugate is 33.3 nM, with a 5-fold gradient dilution for a total of 8 concentrations. The 96-well plate was incubated in an incubator at 37 °C with 5% CO2 for 120 h. […] The chemiluminescence value was determined using a microplate reader, and the viability of U2OS-Luciferase cells was calculated. Viability(%) = (Luminescence value of the experimental group)/(Luminescence value of the control group) × 100% [formula]
Data were analyzed using GraphPad Prism 5.

B1: hz28G3-1.3-DDDXd: anti-CLDN18.2 antibody hz28G3-1.3 conjugated with compound H (MC-GGFG-DDDXd); DAR 7.4 (Example 3), 7.6 (Example 5), 7.93 (Example 16) (conjugate)
heavy: QVQLVQSGAEVKKPGASVKVSCKTSGYSFTDYLMLWVRQAHGQSLEWMGNINPYYGRTTYALKFKGRVTMTVDRSTSTVYMELSSLRSEDTAVYYCARDGYSLRNAMDYWGQGTLVTVSS[human IgG1 constant region left out here]
light: DIVMTQSPDSLAVSLGERATINCKSSQSLFNSGNQKNYLAWYQQKPGQPPKLLIYGASTRESGVPDRFSGSGSGTDFTLTISSLQAEDVAVYYCQNAHSYPYTFGQGTKVEIKRTVAAPSVFIFPPSDEQLKSGTASVVCLLNNFYPREAKVQWKVDNALQSGNSQESVTEQDSKDSTYSLSSTLTLSKADYEKHKVYACEVTHQGLSSPVTKSFNRGEC
NIH-3T3-CLDN18.1 cells
  killing activity against NIH-3T3-CLDN18.1 cells: no killing activity
U2OS-Luciferase
  bystander effect: significant bystander effect
